Data as given in the supplement of paper PMC11417369.
Some of the results follow.

System: PfHDP1 homeodomain (GST-tagged)
Assay: gcPBM binding intensity (ln(normalized median fluorescence intensity)); higher = stronger DNA binding
Summary of the method: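 The binding buffer was 1× PBS containing 1% milk, 0.2 mg/ml BSA, 0.5% salmon testes DNA and 0.03% Triton X-100. In it, GST-tagged P. falciparum DNA-binding domains expressed in E. coli were applied for 1 h to an Agilent 4 × 180k array of primer-extended double-stranded 36-bp intergenic genomic probes plus negative controls. Binding intensity, read with Alexa488 anti-GST antibody and a 488 nm scan, is the highest Masliner-normalised natural-log median intensity across replicate spots of either probe orientation.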

| Sequence | gcPBM binding intensity (ln) |
| --- | --- |
| ATACACACTTAAAAAAGTACTTAACTACATGAATTG [XGTACX_site1203] | 6.53 |
| ATATTATATATAAAATGTACATTTAAAAATATTATA [XGTACX_site889] | 6.51 |
| TTAAAATAAAGTAGTGGTACAAAAAAAAAAAAAAAA [XGTACX_site6322] | 6.35 |
| ATTAAATCGATATATACACACATGTTTGGTATATTC [CACACA_site7285] | 6.54 |
| TAACCTATAATATTCACACACATATAAATATTATAG [CACACA_site6592] | 6.64 |
| TTTTACTTAAAACACACACACACAAAAAAAAAAAAA [CACACA_site947] | 6.49 |
| AGTAATAGTTTGTGCACACTCAAGTATATCATATAT [CACACA_site4034] | 11.2 |
| TTTTTCAGAAAAGAAACACACATATTTATATTTATA [CACACA_site7167] | 6.18 |
| TAAACAAATAAATAAACACACAATATCTGTATTTAT [CACACA_site5978] | 5.94 |
| TATATGTATATATATTAACACACAAAAAAAAAAAAA [CACACA_site8534] | 6.52 |
| AACAAATATATATGTAGTACATGTTGTAGATAATTT [XGTACX_site24] | 6.68 |
| TTTTTTTTTTTAAATTCACACAATATATAAATATTG [CACACA_site5201] | 6.34 |
| AGAAAAATTATTTTGCGTACATATTTACAATAAAAA [XGTACX_site2144] | 6.42 |
| TACGTAAAATAATTGAGTACATAATTATATATATAT [XGTACX_site5361] | 8.57 |
| TTTAAAATATATAGTACACACGTGAACACAAATACA [CACACA_site4392] | 6.62 |
| GTACATTATTTATATACACACAAAGAAAAATATACA [CACACA_site3452] | 6.78 |
| TAAAGCATATTATAAACACACACTGTATAAAGATAT [CACACA_site296] | 6.7 |
| TTGTTTTTAATATCGGTGCAATGGAAAGAAAAGAAG [GTGCAC_site9494] | 9.94 |
| TATACATATGAAAATACACACATACATACAGATATA [CACACA_site5002] | 6.64 |
| AAAAAAAATATAATATGTACATATCTATATATCAAC [XGTACX_site4881] | 6.58 |
| TTTTTATATGCGTATTGTACATTATACATATATATA [XGTACX_site6786] | 6.51 |
| CCTTTTTTGTTTTATGCACACCATATAACCAAGGCT [CACACA_site7893] | 10.3 |

| Sequence | gcPBM binding intensity (ln) |
| --- | --- |
| TAAATGTCCTTATTTGCACACACACCCATAAGAAAT [CACACA_site3185] | 10.4 |
| TATATATAAAAATATACACACACAAATGTATATATA [CACACA_site7956] | 6.36 |
| ATGTAATGAAACATTGCACACATATAATAATATAAT [CACACA_site8402] | 9.81 |
| AAAAAAAAAAAAAAGCGTACAAATAAAATATATTTA [XGTACX_site7195] | 6.3 |
| AATTAAATTACTTATACACACATAAAATGGGTGTAT [CACACA_site4703] | 6.48 |
| CGTATATATAAATACACACACATATATATCTGTAAA [CACACA_site4272] | 6.74 |
| TTAATTTATTTATGCACACATATATAATTACCCATA [CACACA_site682] | 10.7 |
| TTTTCTCTCAAAAAATGTACATAATATATATATTTT [XGTACX_site4861] | 6.98 |
| AGAATATCAAAATAAAGTACATTTATTATATATATG [XGTACX_site7100] | 6.15 |
| AAAAAAAAAAAACATACACACATACATACCTATATA [CACACA_site6575] | 6.44 |
| TTTTTTTTTAAGATGAAGATCAATATATAAATATAT [CACACA_negctrl_site1538] | 6.06 |
| ATTCTTATAACAAGAAGTACAAATATATGTATATAT [XGTACX_site4528] | 6.45 |
| AAACATAAGAAACACACACACATATATATATATATA [CACACA_site3642] | 9.3 |
| ATGATGTGCAAGAGTAGTACACAATTTTGGGTTTAT [XGTACX_site501] | 9.42 |
| AACATCAATTTATTTTCTTACATTATACGATTCATG [CACACA_negctrl_site1300] | 6.51 |
| TAATTATGCCAACACACACACACACCCAACTAAAAA [CACACA_site8823] | 6.96 |
| AAAAAAAAATCAAAATGTACTTATTTTTATAATAAT [XGTACX_site4712] | 6.31 |
| GTGGTTGTAATGGTGGTGCATATTGTATATTATGTT | 10.2 |
| TTTCTATATCTTTCAACACACAAATTTTTTTTTCCA [CACACA_site108] | 6.46 |
| ACATACATACCCCCACGTACGTACCGAAACACCACC [XGTACX_site1982] | 7.32 |
| AATTTTATATATATATGTACATATTTATATGCTTAT [XGTACX_site8180] | 6.75 |
| AATATAAGTGTACATACACACTTTACAATATCATAT [CACACA_site5634] | 6.49 |
